# Assay results: the supplement of paper PMC8728848
# The list shows a part of the results.
# B1: Pbx2 (Cryptococcus neoformans) (protein)
# chain: AVSPLPSSTELVFYSQKRRRRRICSTATGSLSTPDPTRMTSDPYKRVGMRFSSVPRLLITFLSLLLLVSAAPPCVRFADYDSINQMFIDGGPGTKVLLCPNRLYRLSGPIIFTAADQEIATYGYPTGSERAVLRVEGRNTATAIQGDCRRCARVSVKNLVVDGNRKKLGRMRDFQLATGLVVLGGNEGQSIQNSWIKNPRGFTAIHIREGDKLQCSGARVEKNEIGPVGEEYDPEKDGDDPEMSPLGRPLADGVSIACRDSFIRDNTFRDNTDAAIVVYCSPGTLIHANHIFAQSLSAMAGILMVDSTPFNGDYTGTVVRSNIIDAVSRTIRVGIGIGPTVWSDDTETILTGGSVIGNGLKGRYMGYGIAAAGLKQWTIKDNWDEAKHEGRKSARCFDEPVNPDPIGLLYNRPTMEDCTVQSGFADHDFQYLVCIDGLYDKTNPPKHDPAPLAHDPSPTNAQEDNTVQQDGGDSKSKSIEQPREASDIEAEPSVEKMFSTGSEMMDDVLEHSHQRMHEVIDHLSRRIDILGAASAGKGSGDSKISEVLDPAMSSHLEKLQRKIEHLEFSLRSQIETAIQLRSAIQGWDQEMALVTDWEYDILLDVRHKLELSSYPHDQPLDPRLMRGQSYLNNEAVLVDDHSHPSLEGENLRAMSDRARLNANEEA
# Assays:
# Assay in all cases: glycan array binding signal (z-score within array); higher = stronger binding
# Conditions in all cases: glycan notation: IUPAC condensed, linker removed
# [1] = biological target: Neu5Ac(a2-6)Gal(b1-4)GlcNAc(b1-2)Man(a1-3)[Neu5Ac(a2-3)Gal(b1-4)GlcNAc(b1-2)Man(a1-6)]Man(b1-4)GlcNAc(b1-4)GlcNAc
# In short: (§1)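 Glycan array data were curated from 3228 arrays in the Consortium for Functional Glycomics database and kept only where the protein sequence was available. Glycan names were converted to IUPAC-condensed notation, and columns mapping to the same glycan were averaged. The binding signal is a within-array Z-score, averaged across arrays of the same protein sequence at different concentrations or buffers and across linkers. Negative Z-scores can be read as non-binding.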
# [2] = biological target: Neu5Ac(a2-6)Gal(b1-4)GlcNAc(b1-2)Man(a1-3)[Neu5Ac(a2-6)Gal(b1-4)GlcNAc(b1-2)Man(a1-6)]Man(b1-4)GlcNAc(b1-4)GlcNAc
# In short: as §1
# [3] = biological target: Neu5Ac(a2-6)Gal(b1-4)GlcNAc(b1-2)Man(a1-3)[Neu5Ac(a2-6)Gal(b1-4)GlcNAc(b1-2)Man(a1-6)]Man(b1-4)GlcNAc(b1-4)[Fuc(a1-6)]GlcNAc
# In short: as §1
# [4] = biological target: Neu5Ac(a2-6)Gal(b1-4)GlcNAc(b1-2)Man(a1-6)Man(b1-4)GlcNAc(b1-4)GlcNAc
# In short: as §1
# [5] = biological target: Neu5Ac(a2-6)Gal(b1-4)GlcNAc(b1-2)Man(a1-6)[Gal(b1-4)GlcNAc(b1-2)Man(a1-3)]Man(b1-4)GlcNAc(b1-4)GlcNAc
# In short: as §1
# [6] = biological target: Neu5Ac(a2-6)Gal(b1-4)GlcNAc(b1-2)Man(a1-6)[GlcNAc(b1-2)Man(a1-3)]Man(b1-4)GlcNAc(b1-4)GlcNAc
# In short: as §1
# [7] = biological target: Neu5Ac(a2-6)Gal(b1-4)GlcNAc(b1-2)Man(a1-6)[Man(a1-3)]Man(b1-4)GlcNAc(b1-4)GlcNAc
# In short: as §1
# [8] = biological target: Neu5Ac(a2-6)Gal(b1-4)GlcNAc(b1-2)[Neu5Ac(a2-6)Gal(b1-4)GlcNAc(b1-4)]Man(a1-3)[GlcNAc(b1-4)][Neu5Ac(a2-6)Gal(b1-4)GlcNAc(b1-2)[Neu5Ac(a2-6)Gal(b1-4)GlcNAc(b1-6)]Man(a1-6)]Man(b1-4)GlcNAc(b1-4)GlcNAc
# In short: as §1
# [9] = biological target: Neu5Ac(a2-6)Gal(b1-4)GlcNAc(b1-2)[Neu5Ac(a2-6)Gal(b1-4)GlcNAc(b1-4)]Man(a1-3)[GlcNAc(b1-4)][Neu5Ac(a2-6)Gal(b1-4)GlcNAc(b1-4)Man(a1-6)]Man(b1-4)GlcNAc(b1-4)GlcNAc
# In short: as §1
# [10] = biological target: Neu5Ac(a2-6)Gal(b1-4)GlcNAc(b1-2)[Neu5Ac(a2-6)Gal(b1-4)GlcNAc(b1-6)]Man(a1-6)[Neu5Ac(a2-6)Gal(b1-4)GlcNAc(b1-2)Man(a1-3)][GlcNAc(b1-4)]Man(b1-4)GlcNAc(b1-4)GlcNAc
# In short: as §1
# [11] = biological target: Neu5Ac(a2-6)Gal(b1-4)GlcNAc(b1-3)Gal(b1-3)GlcNAc
# In short: as §1
# [12] = biological target: Neu5Ac(a2-6)Gal(b1-4)GlcNAc(b1-3)Gal(b1-4)GlcNAc
# In short: as §1
# [13] = biological target: Neu5Ac(a2-6)Gal(b1-4)GlcNAc(b1-3)Gal(b1-4)GlcNAc(b1-2)Man(a1-3)[Neu5Ac(a2-6)Gal(b1-4)GlcNAc(b1-3)Gal(b1-4)GlcNAc(b1-2)Man(a1-6)]GalNAc
# In short: as §1
# [14] = biological target: Neu5Ac(a2-6)Gal(b1-4)GlcNAc(b1-3)Gal(b1-4)GlcNAc(b1-3)Gal(b1-4)GlcNAc
# In short: as §1
# [15] = biological target: Neu5Ac(a2-6)Gal(b1-4)GlcNAc(b1-3)Gal(b1-4)GlcNAc(b1-3)Gal(b1-4)GlcNAc(b1-2)Man(a1-3)[Neu5Ac(a2-6)Gal(b1-4)GlcNAc(b1-3)Gal(b1-4)GlcNAc(b1-3)Gal(b1-4)GlcNAc(b1-2)Man(a1-6)]GalNAc
# In short: as §1
# [16] = biological target: Neu5Ac(a2-6)Gal(b1-4)GlcNAc(b1-3)Gal(b1-4)GlcNAc(b1-3)GalNAc
# In short: as §1
# [17] = biological target: Neu5Ac(a2-6)Gal(b1-4)GlcNAc(b1-3)Gal(b1-4)GlcNAc(b1-3)[Neu5Ac(a2-6)Gal(b1-4)GlcNAc(b1-3)Gal(b1-4)GlcNAc(b1-6)]GalNAc
# In short: as §1
# [18] = biological target: Neu5Ac(a2-6)Gal(b1-4)GlcNAc(b1-3)Gal(b1-4)GlcNAc(b1-6)[Gal(b1-3)]GalNAc
# In short: as §1
# [19] = biological target: Neu5Ac(a2-6)Gal(b1-4)GlcNAc(b1-3)Gal(b1-4)[Fuc(a1-3)]GlcNAc(b1-3)Gal(b1-4)[Fuc(a1-3)]GlcNAc
# In short: as §1
# [20] = biological target: Neu5Ac(a2-6)Gal(b1-4)GlcNAc(b1-3)GalNAc
# In short: as §1
# [21] = biological target: Neu5Ac(a2-6)Gal(b1-4)GlcNAc(b1-3)[Neu5Ac(a2-6)Gal(b1-4)GlcNAc(b1-6)]GalNAc
# In short: as §1
# [22] = biological target: Neu5Ac(a2-6)Gal(b1-4)GlcNAc(b1-6)GalNAc
# In short: as §1
# [23] = biological target: Neu5Ac(a2-6)Gal(b1-4)GlcNAc(b1-6)[Gal(b1-3)GlcNAc(b1-3)]Gal(b1-4)Glc
# In short: as §1
# [24] = biological target: Neu5Ac(a2-6)Gal(b1-4)GlcNAc(b1-6)[Gal(b1-3)]GalNAc
# In short: as §1
# [25] = biological target: Neu5Ac(a2-6)Gal(b1-4)GlcNAc6S
# In short: as §1
# Neu5Ac(a2-6)GalNAc = biological target: Neu5Ac(a2-6)GalNAc
# In short: as §1
# [26] = biological target: Neu5Ac(a2-6)GalNAc(b1-4)GlcNAc
# In short: as §1
# [27] = biological target: Neu5Ac(a2-6)GalNAc(b1-4)GlcNAc6S
# In short: as §1
# [28] = biological target: Neu5Ac(a2-6)GlcNAc(b1-4)GlcNAc
# In short: as §1
# [29] = biological target: Neu5Ac(a2-6)GlcNAc(b1-4)GlcNAc(b1-4)GlcNAc
# In short: as §1
binder,measurement,setting,value
B1,glycan array binding signal (z-score),[1],0.438
same,glycan array binding signal (z-score),[2],-0.312
same,glycan array binding signal (z-score),[3],-0.225
same,glycan array binding signal (z-score),[4],-0.057
same,glycan array binding signal (z-score),[5],-0.501
same,glycan array binding signal (z-score),[6],-0.278
same,glycan array binding signal (z-score),[7],0.183
same,glycan array binding signal (z-score),[8],-0.253
same,glycan array binding signal (z-score),[9],-0.236
same,glycan array binding signal (z-score),[10],0.409
same,glycan array binding signal (z-score),[11],-0.368
same,glycan array binding signal (z-score),[12],-0.548
same,glycan array binding signal (z-score),[13],-0.243
same,glycan array binding signal (z-score),[14],-0.328
same,glycan array binding signal (z-score),[15],1.26
same,glycan array binding signal (z-score),[16],-0.168
same,glycan array binding signal (z-score),[17],0.439
same,glycan array binding signal (z-score),[18],-0.121
same,glycan array binding signal (z-score),[19],-0.455
same,glycan array binding signal (z-score),[20],0.577
same,glycan array binding signal (z-score),[21],-0.054
same,glycan array binding signal (z-score),[22],0.449
same,glycan array binding signal (z-score),[23],0.145
same,glycan array binding signal (z-score),[24],-0.462
same,glycan array binding signal (z-score),[25],0.219
same,glycan array binding signal (z-score),Neu5Ac(a2-6)GalNAc,-0.487
same,glycan array binding signal (z-score),[26],-0.63
same,glycan array binding signal (z-score),[27],0.207
same,glycan array binding signal (z-score),[28],-0.484
same,glycan array binding signal (z-score),[29],-0.552
